Results reported in the supplement of paper PMC4604168 (melanoma cell lines).
The other results are listed elsewhere or left out. Single values are uncertain, as repeats are few or missing.
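Note: cell number obtained by counting DAPI-stained nuclei in high-throughput microscope images with image analysis software, screen run in 1,536-well plates.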

The compounds below were run on G361 (assay: cell count relative to DMSO control; melanoma cells; higher = more viable cells). Conditions: library dose: low library concentration; 72 h.
`Nc1ccn([C@@H]2O[C@H](CO)[C@@H](O)C2(F)F)c(=O)n1` [gemcitabine] + O=c1cc(-c2cccc3c2Sc2ccccc2S3)oc(N2CCOCC2)c1 [KU55933] (first compound 0.0004 µM, partner dose 1 µM) gave a cell count of 107%. `Nc1nc(F)nc2c1ncn2[C@@H]1O[C@H](CO)[C@@H](O)[C@@H]1O` [fludarabine] + Oc1cc(-c2nc(-c3ccccc3)[nH]c2-c2ccncc2)ccc1Cl [L779450] (first compound 0.2 µM, partner dose 0.2 µM) showed a cell count of 90.3%. With `Nc1ccn([C@@H]2O[C@H](CO)[C@@H](O)C2(F)F)c(=O)n1` [gemcitabine] + CCN(CC)CCCCNc1ncc2cc(-c3cc(OC)cc(OC)c3)c(NC(=O)NC(C)(C)C)nc2n1 [PD173074] (first compound 0.0004 µM, partner dose 0.1 µM) the cell count was 86.4%. `CC(=O)O[C@@]12CO[C@@H]1C[C@H](O)[C@@]1(C)C(=O)[C@H](O)C3=C(C)[C@@H](OC(=O)[C@H](O)[C@@H](NC(=O)OC(C)(C)C)c4ccccc4)C[C@@](O)([C@@H](OC(=O)c4ccccc4)[C@H]21)C3(C)C` [Docetaxel] + CCCCCCCCCCCC1=C(O)C(=O)C=C(O)C1=O [Embelin] (first compound 0.0001 µM, partner dose 1.2 µM) gave a cell count of 21.2%. Work on `Nc1nc(F)nc2c1ncn2[C@@H]1O[C@H](CO)[C@@H](O)[C@@H]1O` [fludarabine] + O=c1cc(-c2cccc3c2Sc2ccccc2S3)oc(N2CCOCC2)c1 [KU55933] (first compound 0.2 µM, partner dose 1 µM) yielded a cell count of 97.8%. With `CO[C@H]1C[C@@H]2CC[C@@H](C)[C@@](O)(O2)C(=O)C(=O)N2CCCC[C@H]2C(=O)O[C@H]([C@H](C)C[C@@H]2CC[C@@H](OCCO)[C@H](OC)C2)CC(=O)[C@H](C)/C=C(\C)[C@@H](O)[C@@H](OC)C(=O)[C@H](C)C[C@H](C)/C=C/C=C/C=C/1C` [everolimus] + O=c1cc(-c2cccc3c2Sc2ccccc2S3)oc(N2CCOCC2)c1 [KU55933] (first compound 0.02 µM, partner dose 1 µM) the cell count was 56.9%. For `CC(=O)O[C@@]12CO[C@@H]1C[C@H](O)[C@@]1(C)C(=O)[C@H](O)C3=C(C)[C@@H](OC(=O)[C@H](O)[C@@H](NC(=O)OC(C)(C)C)c4ccccc4)C[C@@](O)([C@@H](OC(=O)c4ccccc4)[C@H]21)C3(C)C` [Docetaxel] + COc1ccc2c(c1)CCC1C2CCC2(C)C(NCCCCCCN3C(=O)C=CC3=O)CCC12 [U73122] (first compound 0.0001 µM, partner dose 0.4 µM), the cell count was 22.9%. `CC(=O)O[C@@]12CO[C@@H]1C[C@H](O)[C@@]1(C)C(=O)[C@H](O)C3=C(C)[C@@H](OC(=O)[C@H](O)[C@@H](NC(=O)OC(C)(C)C)c4ccccc4)C[C@@](O)([C@@H](OC(=O)c4ccccc4)[C@H]21)C3(C)C` [Docetaxel] + O=C(O)C(=O)Nc1sc2c(c1C(=O)O)CCNC2 [TCS401] (first compound 0.0001 µM, partner dose 1.66667 µM) gave a cell count of 34.3%. In the case of `CO[C@H]1C[C@@H]2CC[C@@H](C)[C@@](O)(O2)C(=O)C(=O)N2CCCC[C@H]2C(=O)O[C@H]([C@H](C)C[C@@H]2CC[C@@H](OCCO)[C@H](OC)C2)CC(=O)[C@H](C)/C=C(\C)[C@@H](O)[C@@H](OC)C(=O)[C@H](C)C[C@H](C)/C=C/C=C/C=C/1C` [everolimus] + c1cc(-c2cnn3cc(-c4ccc(OCCN5CCCCC5)cc4)cnc23)ccn1 [Dorsomorphin] (first compound 0.02 µM, partner dose 0.4 µM), the cell count is reported as 51.1%. With `CC(=O)c1c(C)c2cnc(Nc3ccc(N4CCNCC4)cn3)nc2n(C2CCCC2)c1=O` [palbociclib] + Oc1cc(-c2nc(-c3ccccc3)[nH]c2-c2ccncc2)ccc1Cl [L779450] (first compound 0.04 µM, partner dose 0.2 µM) the cell count was 82.7%. `Nc1ncn([C@H]2C[C@H](O)[C@@H](CO)O2)c(=O)n1` [decitabine] + O=C(Nc1ccccc1)c1cc([N+](=O)[O-])ccc1Cl [GW9662] (first compound 0.1 µM, partner dose 2 µM) showed a cell count of 93.7%. Compound `Nc1nc(F)nc2c1ncn2[C@@H]1O[C@H](CO)[C@@H](O)[C@@H]1O` [fludarabine] + c1cc(-c2cnn3cc(-c4ccc(OCCN5CCCCC5)cc4)cnc23)ccn1 [Dorsomorphin] (first compound 0.2 µM, partner dose 0.4 µM) has a cell count of 96.1%. `CO[C@H]1C[C@@H]2CC[C@@H](C)[C@@](O)(O2)C(=O)C(=O)N2CCCC[C@H]2C(=O)O[C@H]([C@H](C)C[C@@H]2CC[C@@H](OCCO)[C@H](OC)C2)CC(=O)[C@H](C)/C=C(\C)[C@@H](O)[C@@H](OC)C(=O)[C@H](C)C[C@H](C)/C=C/C=C/C=C/1C` [everolimus] + O=C(Nc1ccccc1)c1cc([N+](=O)[O-])ccc1Cl [GW9662] (first compound 0.02 µM, partner dose 2 µM) gave a cell count of 59.7%. In the case of `CC(=O)c1c(C)c2cnc(Nc3ccc(N4CCNCC4)cn3)nc2n(C2CCCC2)c1=O` [palbociclib] + COC(=O)c1sccc1S(=O)(=O)Nc1ccc(Nc2ccccc2)cc1OC [GSK0660] (first compound 0.04 µM, partner dose 1 µM), the cell count is reported as 79.9%. Work on `CO[C@H]1C[C@@H]2CC[C@@H](C)[C@@](O)(O2)C(=O)C(=O)N2CCCC[C@H]2C(=O)O[C@H]([C@H](C)C[C@@H]2CC[C@@H](OCCO)[C@H](OC)C2)CC(=O)[C@H](C)/C=C(\C)[C@@H](O)[C@@H](OC)C(=O)[C@H](C)C[C@H](C)/C=C/C=C/C=C/1C` [everolimus] + Cn1cc(/C=C2\C(=O)Nc3cccnc32)c2ccccc21 [GW441756] (first compound 0.02 µM, partner dose 0.4 µM) yielded a cell count of 71.3%. `CO[C@H]1C[C@@H]2CC[C@@H](C)[C@@](O)(O2)C(=O)C(=O)N2CCCC[C@H]2C(=O)O[C@H]([C@H](C)C[C@@H]2CC[C@@H](OCCO)[C@H](OC)C2)CC(=O)[C@H](C)/C=C(\C)[C@@H](O)[C@@H](OC)C(=O)[C@H](C)C[C@H](C)/C=C/C=C/C=C/1C` [everolimus] + CCN(CC)CCCCNc1ncc2cc(-c3cc(OC)cc(OC)c3)c(NC(=O)NC(C)(C)C)nc2n1 [PD173074] (first compound 0.02 µM, partner dose 0.1 µM) showed a cell count of 61.3%. Work on `Nc1ccn([C@@H]2O[C@H](CO)[C@@H](O)C2(F)F)c(=O)n1` [gemcitabine] + O=C1NC(=O)/C(=C/c2ccc(-c3ccc(F)cc3O)o2)S1 [AS252424] (first compound 0.0004 µM, partner dose 1 µM) yielded a cell count of 81%. Work on `Nc1ccn([C@@H]2O[C@H](CO)[C@@H](O)C2(F)F)c(=O)n1` [gemcitabine] + Oc1nc(-c2ccc(C(F)(F)F)cc2)nc2c1CSCC2 [XAV939] (first compound 0.0004 µM, partner dose 2 µM) yielded a cell count of 78.3%. `Nc1ccn([C@@H]2O[C@H](CO)[C@@H](O)C2(F)F)c(=O)n1` [gemcitabine] + O=S(=O)(c1ccccc1)N(CC(F)(F)F)c1ccc(C(O)(C(F)(F)F)C(F)(F)F)cc1 [T0901317] (first compound 0.0004 µM, partner dose 1.4 µM) was tested, and the cell count was 85%. `Nc1nc(F)nc2c1ncn2[C@@H]1O[C@H](CO)[C@@H](O)[C@@H]1O` [fludarabine] + CCc1ccc(CCOc2ccc(CC3SC(=O)NC3=O)cc2)nc1 [pioglitazone] (first compound 0.2 µM, partner dose 2 µM) showed a cell count of 91%. `CC(=O)c1c(C)c2cnc(Nc3ccc(N4CCNCC4)cn3)nc2n(C2CCCC2)c1=O` [palbociclib] + Cc1cc([N+](=O)[O-])ccc1NS(=O)(=O)c1cc(Cl)ccc1Cl [FH535] (first compound 0.04 µM, partner dose 1 µM) gave a cell count of 76.6%. Work on `CC(=O)O[C@@]12CO[C@@H]1C[C@H](O)[C@@]1(C)C(=O)[C@H](O)C3=C(C)[C@@H](OC(=O)[C@H](O)[C@@H](NC(=O)OC(C)(C)C)c4ccccc4)C[C@@](O)([C@@H](OC(=O)c4ccccc4)[C@H]21)C3(C)C` [Docetaxel] + N#Cc1c(O)c2c(-c3ccc(-c4ccccc4O)cc3)csc2[nH]c1=O [A769662] (first compound 0.0001 µM, partner dose 2 µM) yielded a cell count of 24.7%. For `Nc1ncn([C@H]2C[C@H](O)[C@@H](CO)O2)c(=O)n1` [decitabine] + COC(=O)c1sccc1S(=O)(=O)Nc1ccc(Nc2ccccc2)cc1OC [GSK0660] (first compound 0.1 µM, partner dose 1 µM), the cell count was 84%. `CO[C@H]1C[C@@H]2CC[C@@H](C)[C@@](O)(O2)C(=O)C(=O)N2CCCC[C@H]2C(=O)O[C@H]([C@H](C)C[C@@H]2CC[C@@H](OCCO)[C@H](OC)C2)CC(=O)[C@H](C)/C=C(\C)[C@@H](O)[C@@H](OC)C(=O)[C@H](C)C[C@H](C)/C=C/C=C/C=C/1C` [everolimus] + COc1ccc2c(c1)CCC1C2CCC2(C)C(NCCCCCCN3C(=O)C=CC3=O)CCC12 [U73122] (first compound 0.02 µM, partner dose 0.4 µM) gave a cell count of 62.9%.
